From a compilation of properties of binary mixtures (doi:10.1016/j.molliq.2017.05.115)
Some of these densities may be calculated back from excess volumes.

Test: xn = mol fraction of the nth substance listed
Conditions: 101 kPa

For `CC[n+]1ccn(C)c1.COS(=O)(=O)[O-]` + CCCCCCCO, which mass density (298.15 K, x1 = 0.0836) is on record?
Its mass density is 865.2 kg/m3.

And the mass density (298.15 K, x1 = 0.1703)?
The mass density was 911.8 kg/m3.

And the mass density (298.15 K, x1 = 0.2602)?
Its mass density is 958.5 kg/m3.

What about the mass density (298.15 K, x1 = 0.3537) of the same compound?
Its mass density is 1005.4 kg/m3.

What about the mass density (298.15 K, x1 = 0.4508) of the same compound?
The mass density was 1052.4 kg/m3.

And the mass density (298.15 K, x1 = 0.657)?
Its mass density is 1146.3 kg/m3.

And the mass density (298.15 K, x1 = 0.8808)?
Its mass density is 1239.4 kg/m3.

What about the mass density (303.15 K, x1 = 0.0836) of the same compound?
The mass density was 861.7 kg/m3.

What about the mass density (303.15 K, x1 = 0.1703) of the same compound?
Its mass density is 908.3 kg/m3.

What about the mass density (303.15 K, x1 = 0.2602) of the same compound?
Its mass density is 955 kg/m3.

What about the mass density (303.15 K, x1 = 0.3537) of the same compound?
Its mass density is 1001.9 kg/m3.

And the mass density (303.15 K, x1 = 0.4508)?
The mass density was 1048.9 kg/m3.

What about the mass density (303.15 K, x1 = 0.5518) of the same compound?
Its mass density is 1096 kg/m3.

What about the mass density (303.15 K, x1 = 0.657) of the same compound?
The mass density was 1142.9 kg/m3.

What about the mass density (303.15 K, x1 = 0.8808) of the same compound?
Its mass density is 1236.1 kg/m3.

What about the mass density (308.15 K, x1 = 0.0836) of the same compound?
The mass density was 858.1 kg/m3.

What about the mass density (308.15 K, x1 = 0.1703) of the same compound?
The mass density was 904.7 kg/m3.

What about the mass density (308.15 K, x1 = 0.2602) of the same compound?
Its mass density is 951.5 kg/m3.

And the mass density (308.15 K, x1 = 0.4508)?
The mass density was 1045.4 kg/m3.

What about the mass density (308.15 K, x1 = 0.5518) of the same compound?
Its mass density is 1092.5 kg/m3.

And the mass density (308.15 K, x1 = 0.657)?
The mass density was 1139.5 kg/m3.

What about the mass density (308.15 K, x1 = 0.7665) of the same compound?
Its mass density is 1186.4 kg/m3.

And the mass density (308.15 K, x1 = 0.8808)?
Its mass density is 1233 kg/m3.
